# Experimental data reported in PubChem BioAssay AID1345083 (National Center for Advancing Translational Sciences (NCATS), 2018).
# Among all 94,000 compounds or so, about 6,200 (6.6%) were called active. The inconclusive results got no clear call from the source; some entries with a clear call stand among them for comparison. Calls follow the shape of the dose curve; as a rule, active = well fitted inhibition curve with a large enough effect; inconclusive = small, poorly fitted or top-dose-only effect; inactive = flat fitted curve, though single readings scatter. Where the call is inconclusive, the potency comes from a doubtful curve fit.
# Test: Cytotoxic Profiling in HEK 293 Cell Line of Diverse Libraries Using Quantitative High-Throughput Screening; also: nearly all actives have a fitted effect of over 60% in size
# Details: HEK 293 viability, ATP luminescence (CellTiter-Glo), 48-72 h; activity change, negative = cytotoxicity: at 115 µM (top of the series) unless noted; series mostly up to 115 µM
# Method in brief: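 ATP-coupled CellTiter-Glo luminescence served as viability read-out, recorded 10 min after reagent addition at room temperature. HEK 293 cells, 250 cells/well, had been incubated with pintool-transferred compound for 48 or 72 hr at 37 degree Celsius.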
# % is scaled to controls: 0 for no effect and ±100 for the full control effect; potency is read from the fitted curve at half-maximal effect; tags tell the direction and shape of the fitted curve.
Compound,Potency,"activity change, negative = cytotoxicity",outcome
CCOC(=O)c1ccc(NC(=O)N2Cc3[nH]cnc3C[C@H]2c2nc(-c3ccc(C)cc3)no2)cc1,"inconclusive: 50.1 µM [inhibitor, partial curve, poor fit]",–,–
CN1C[C@@H]2CCCN3CCC[C@@H]([C@H]23)[C@H]1CCCC(=O)NCc1ccccc1,–,inactive: -20.7%,–
CC1(C(=O)NCc2cccnc2)CCCc2cnc(Nc3ccccc3F)nc21 (configuration not stated),"inconclusive: 89.1 µM [inhibitor, partial curve]",–,–
CCN(CC)C(=O)N1CCC(Oc2ccc(-c3noc(COC)n3)cc2)C1 (configuration not stated),"inconclusive: 35.5 µM [inhibitor, full curve, poor fit]",–,–
c1nc(-c2cc(NC3CCNCC3)nc3[nH]ccc23)c2sccc2n1,"inconclusive: 25.1 µM [inhibitor, full curve, poor fit]",–,–
O=C(N[C@@H]1CN(Cc2ccc(F)cc2)C[C@H]1CO)c1ccccc1,"inconclusive: 79.4 µM [inhibitor, partial curve, poor fit]",–,–
CC(C)NC(=O)c1ccc2oc(-c3ccncc3)nc2c1,"inconclusive: 63.1 µM [inhibitor, partial curve, poor fit]",–,–
Cc1cccc(-c2nocc2CCC(=O)N2CCN(c3cccc(C)c3)CC2)c1,"inconclusive: 44.7 µM [inhibitor, partial curve, poor fit]",–,–
COC(=O)CNC(=O)c1nn(C)c2nc(-c3ccccc3OC)ccc12,–,inactive: 0.794%,–
Cc1ccc(C(=O)N2CCCC3(C2)C(=NC2CCCC2)NC(=O)N3c2cc(F)cc(F)c2)cc1 (configuration not stated),–,–,inactive
COc1cc(SC)ccc1C(=O)N[C@H]1CCN2C(=O)N(c3ccc(F)c(Cl)c3)C(=O)[C@@H]2C1,"inconclusive: 89.1 µM [inhibitor, single point]",–,–
O=C1Nc2ccccc2CC12CN(Cc1ccc(F)cc1)C2,"inconclusive: 112 µM [inhibitor, partial curve, poor fit]",–,–
CC(C)(C)c1ccc(C(=O)Nc2ccc(C(O)[C@H]3COCC(=O)N3Cc3ccccn3)cc2)cc1 (some centres not stated),"inconclusive: 50.1 µM [inhibitor, partial curve, poor fit]",–,–
COc1ccc(N2C(=O)C3(CCCCC3)C2C(=O)N2CCN(C(C)=O)CC2)cc1 (configuration not stated),–,inactive: -4.38%,–
COc1cccc(-c2ncc3c(n2)OCCN(Cc2ccc(F)cc2F)C3=O)c1,"inconclusive: 31.6 µM [inhibitor, partial curve, poor fit]",–,–
O=C(Cc1ccc(F)cc1)NCCNC(=O)c1cccc(-c2ccsc2)c1,"inconclusive: 79.4 µM [inhibitor, single point]",–,–
Cc1nnnn1-c1cccc(-c2nc(Cc3cccs3)nn2CCO)c1,–,inactive: -24.2%,–
Cc1ncc2n1C(=O)N(C1CCN(C(=O)c3ccccc3F)CC1)C2,–,inactive: -11.8% [at 172 µM],–
COc1cc(C(=O)N2CCN(c3cc(-c4ccc(Cl)cc4)[nH]n3)CC2)cc(OC)c1OC,"inconclusive: 50.1 µM [inhibitor, partial curve, poor fit]",–,–
Cn1ncc2c(C(=O)N3CCC(C#N)CC3)cc(-c3cccc(F)c3)nc21,"inconclusive: 89.1 µM [inhibitor, partial curve]",–,–
O=C(NCc1ccc(F)cc1)N1CCCC(Cn2c(C3CC3)nc3cccnc32)C1 (configuration not stated),"inconclusive: 31.6 µM [inhibitor, partial curve, poor fit]",–,–

Compound,Potency,"activity change, negative = cytotoxicity",outcome
O=C1CC(c2noc(Cc3ccc(Cl)cc3)n2)CN1C1CCCCC1 (configuration not stated),active: 70.8 µM,–,–
CCCN1CCCCC12Cc1ccccc1CN(C(=O)CC)C2 (configuration not stated),–,inactive: -30.2%,–
O=C(CCC[C@@H]1[C@H]2CCCN3CCC[C@@H](CN1C(=O)Nc1ccccc1)[C@@H]23)Nc1ccccc1,"inconclusive: 89.1 µM [inhibitor, single point]",–,–
c1ccc(-c2cn3c(n2)CO[C@@H](CNCc2ccc4ccccc4n2)C3)cc1,"inconclusive: 100 µM [inhibitor, partial curve, poor fit]",–,–
Cc1ccsc1C(=O)N1CCC(CCC(=O)N2CCC(Cc3ccccc3)CC2)CC1,active: 44.7 µM,–,–
Cc1cnc(-c2cccnc2)n1CC1CCN(C(=O)C2CCC2)C1 (configuration not stated),–,inactive: -3.9%,–
COc1ccc(C(C)NC(=O)C2CCN(c3cc(C(F)(F)F)ncn3)CC2)cc1 (configuration not stated),"inconclusive: 22.4 µM [inhibitor, full curve, poor fit]",–,–
Cc1noc(-c2nnn3c2COC(c2ccc(F)cc2)C3)n1 (configuration not stated),–,inactive: 1.86%,–
CCn1ncc(C(=O)N[C@@H]2CN(c3ccccn3)C[C@H]2CN(C)C)c1C,–,–,inactive
CC(=O)Nc1cccc(C(=O)N2CCC(n3cc(-c4nc(-c5ccccc5)no4)nn3)C2)c1 (configuration not stated),"inconclusive: 50.1 µM [inhibitor, partial curve, poor fit]",–,–
Cc1ccc(CNC(=O)C2CCN(c3cc(C(F)(F)F)ncn3)CC2)cc1,"inconclusive: 39.8 µM [inhibitor, full curve, poor fit]",–,–
CCNC(=O)N1CCC(CCOC)(NS(=O)(=O)c2cc(OC)ccc2OC)CC1,–,inactive: -2.97%,–
N#Cc1ccc(CN2CC(CNC(=O)c3ccccc3)C3(C2)CN(c2ccccc2)C3)cc1 (configuration not stated),"inconclusive: 44.7 µM [inhibitor, full curve, poor fit]",–,–
O=C(c1n[nH]c2ccccc12)N1CCC(Cc2nc(-c3ccccc3)n[nH]2)CC1,"inconclusive: 79.4 µM [inhibitor, partial curve, poor fit]",–,–
COc1ccc(NC(=O)N2c3ccccc3CC2c2nc(C(C)C)no2)c(OC)c1 (configuration not stated),"inconclusive: 89.1 µM [inhibitor, single point]",–,–
COc1ccccc1Nc1ccnc(N2CCCC(C(=O)NCC3CC3)C2)n1 (configuration not stated),"inconclusive: 44.7 µM [inhibitor, partial curve, poor fit]",–,–
O=C(NC1CCN(c2ccc3nnc(-c4ccccc4)n3n2)CC1)c1cccc(C(F)(F)F)c1,–,inactive: -46.9%,–
C=CCC1(CO)CCCN(Cc2nc(C)cc(-c3ccccc3)n2)C1 (configuration not stated),"inconclusive: 89.1 µM [inhibitor, single point]",–,–
CN(Cc1ccc2nccnc2c1)C(=O)c1cc(COc2ccc(F)cc2F)on1,"inconclusive: 50.1 µM [inhibitor, partial curve, poor fit]",–,–
CC1(c2ccccc2)N(Cc2ccc(O)cc2)C(=O)OC12CCN(C(=O)c1cccnc1)CC2 (configuration not stated),–,–,inactive
Cc1noc(C)c1[S+](=O)([O-])N1CCN(c2nccc(Nc3ccccc3F)n2)CC1,"inconclusive: 6.31 µM [inhibitor, full curve, poor fit]",–,–

Compound,Potency,"activity change, negative = cytotoxicity",outcome
Cc1cc(=O)n(CC(=O)Nc2ccccc2C)c(N(C)Cc2ccccc2)n1,"inconclusive: 31.6 µM [inhibitor, full curve]",–,–
O=C(C1CCCC1)N1CCC2(CCCN(Cc3cccc(F)c3F)C2)C1 (configuration not stated),"inconclusive: 44.7 µM [inhibitor, partial curve, poor fit]",–,–
CCCc1cc(C(=O)N[C@@H]2CCOC[C@H]2OCCO)n(C)n1,–,–,inactive
CC#CCn1cc2c3c(cccc31)[C@H](CC(C)C)N[C@H](C(=O)NCc1ccccc1OC)C2,"inconclusive: 31.6 µM [inhibitor, full curve, poor fit]",–,–
C[C@@H]1CN(Cc2nnnn2CC(=O)NC2CCN(Cc3ccccc3)CC2)C[C@H](C)O1,–,–,inactive
Cc1cc(C)cc(NC(=O)N2CCC(F)(c3nc(-c4ccncc4)no3)CC2)c1,"inconclusive: 31.6 µM [inhibitor, partial curve]",–,–
CC(=O)NCc1nnc2n1C(C(=O)NCCN1CCOCC1)CC2 (configuration not stated),–,inactive: -1.14%,–
Cc1cc(Cl)ccc1OCC(=O)N1CCC(c2n[nH]c(=O)n2-c2ccccc2)CC1,"inconclusive: 50.1 µM [inhibitor, partial curve, poor fit]",–,–
Cn1c(=O)n([C@H]2CCCN(C(=O)c3cccnc3)C2)c2ncccc21,–,inactive: -9.14%,–
COc1cccc(NC(=O)c2ccnc(-c3nnc4ccc(N(C)C)nn34)c2)c1,"inconclusive: 100 µM [inhibitor, partial curve]",–,–
Cc1c(CN2CCCC23CCN(c2ccc(C(F)(F)F)cn2)CC3)cc(C#N)n1C,"inconclusive: 35.5 µM [inhibitor, partial curve, poor fit]",–,–
O=C(c1c[nH]c2ncccc12)N1CCN(Cc2ccccc2)CC1,"inconclusive: 100 µM [inhibitor, single point]",–,–
CCOc1ccc(CC(=O)N2CCC[C@H]2c2nc(-c3ccc(C)cc3)no2)cc1OCC,"inconclusive: 39.8 µM [inhibitor, partial curve, poor fit]",–,–
O=C(C1CCCC1)N1CCC(N2C(=O)C(OCC3CC3)C23CCCCC3)CC1 (configuration not stated),"inconclusive: 100 µM [inhibitor, single point]",–,–
CCc1nc2nccc(-c3cc4ccccc4o3)n2n1,"inconclusive: 50.1 µM [inhibitor, partial curve, poor fit]",–,–
CCn1cc(S(=O)(=O)N2CCC(c3noc(COCc4ccccc4)n3)CC2)cn1,–,inactive: -15.6%,–
O=C(NCc1ccco1)C1COC2(CCN(C(=O)c3ccc(F)cc3)CC2)N1C(=O)c1ccco1 (configuration not stated),"inconclusive: 50.1 µM [inhibitor, partial curve, poor fit]",–,–
CN(C)c1ccc(C(=O)N[C@H]2C[C@@H](c3nc(-c4ccc5ccccc5c4)no3)N(C)C2)cc1,"inconclusive: 50.1 µM [inhibitor, partial curve, poor fit]",–,–
Cc1ccc(C2=NC3(CCN(C(=O)c4ccc(C)c(F)c4)CC3)ON2)cc1,"inconclusive: 17.8 µM [inhibitor, full curve, poor fit]",–,–
COc1ccc(-c2nc3c(c(=O)[nH]2)CCN(C(=O)COc2ccccc2C)C3)cc1,"inconclusive: 79.4 µM [inhibitor, single point]",–,–
